Some of the results follow.

The subject of the test is T1, C. trachomatis L2/434/Bu expressing GFP (CTL2-GFP).
T1 construct: L2/434/Bu GFP intracellular growth in HeLa cells
More on the design: species or system HeLa; C. trachomatis total inclusion area by high-content imaging, normalised to DMSO. The conditions noted are these: total inclusion area; 28.5 h, 10 µM; inhibitor. From the text: In this process, we also complemented the assay described above with an imaging-based readout (Fig 1B). After measurements of bulk GFP and resorufin fluorescence, cells were fixed, stained with the DNA dye Hoechst, and imaged at a high-content imaging platform to detect chlamydial inclusions (GFP) and host cell nuclei (Hoechst). The total area and number of inclusions in individual wells and the number of nuclei then served as additional proxies for chlamydial growth and host cell viability. […] MICs were calculated as described above.
`CN1CCN(C(=O)c2cc(C(C)(C)C)nn2Cc2ccc(Cl)cc2Cl)CC1` [CBK107285]: the “% of control remaining” value is 94.8264.

For the molecule `CC1(C)CN=C(N2CCN(c3c4c(c(C#N)c5nc6ccccc6n35)CCC4)CC2)S1` [CBK263113], the “% of control remaining” value was found to be 95.3721.

Take `O=c1[nH]cc([C@H]2C[C@@H](O)[C@@H](CO)O2)c(=O)[nH]1` [CBK201158]: the “% of control remaining” value was 112.692.

On to `O=C1NN(c2ccc(Br)cc2)C(=O)/C1=C\c1ccc(-c2ccc3c(c2)C(=O)NC3=O)o1` [CBK262968], for which the “% of control remaining” value was found to be 98.8516.

On to `Cc1cc(NC(=O)CN2CCC(CNc3ccccn3)C2)on1` (stereo not drawn) [CBK305760], for which the “% of control remaining” value worked out at 68.876.

`OC(CN1CCC(O)(c2ccc(C(F)(F)F)cc2)CC1)c1ccccc1` (stereo not drawn) [CBK286323]: the “% of control remaining” value was determined as 97.5612.

Turning to `O=C(O)CC(Cc1ccccc1)c1ccc(Cl)cc1` (stereo not drawn) [CBK270231], the “% of control remaining” value stood at 97.7327.

Turning to `COCCn1c(SCc2cn3ccccc3c2C#N)nc(C)c1C` [CBK306282], the “% of control remaining” value is 42.9337.

For `Cc1ccc2c(c1)C(=O)NCC1(CCN(C(=O)c3ccco3)CC1)O2` [CBK282894], the “% of control remaining” value is recorded as 102.863.

For the molecule `Clc1ccc(SCCN2CCOCC2)cc1` [CBK265055G], the “% of control remaining” value stood at 97.1202.

Take `CC(C)n1c(=O)n(CC(=O)N2CCCCCC2)c2cccnc21` [CBK283527]: the “% of control remaining” value came out at 106.009.

Consider `COc1cc(NC(=O)N2CCNC(=O)C2)cc(OC)c1OC` [CBK155875], for which the “% of control remaining” value is listed as 76.4319.

For `CCc1ccc2c(c1)C(CCNC(=O)CCc1ccsc1)C(=O)N2` (stereo not drawn) [CBK305063], the “% of control remaining” value is reported as 81.3353.

`Cc1ccc2[nH]c3c(c2c1)CCNC31CCN(C(=O)Nc2c(C)noc2C)CC1` [CBK047071]: the “% of control remaining” value worked out at 102.816.

With `O=C(c1cccc(Cn2cccn2)c1)N1CCc2sccc2C1c1ccccc1` (stereo not drawn) [CBK285552], the “% of control remaining” value worked out at 84.5904.

Consider `COc1ccc([N+](=O)[O-])cc1NC(=O)C1C2CCC(C2=C(C)C)C1C(=O)O` (stereo not drawn) [CBK263686], for which the “% of control remaining” value stood at 92.7743.

As for `COc1cccc(/C=N/NC(=O)CSc2nnc(C)n2-c2ccccc2)c1O` [CBK262758], the “% of control remaining” value was found to be 111.694.

For the molecule `O=C(O)CCC(=O)N1CCN(c2ccc(C(=O)c3ccc(F)cc3)cc2)CC1` [CBK269119], the “% of control remaining” value worked out at 96.0988.

For `CC(C)Nc1nc2cc(Cl)c(Cl)cc2nc1Sc1cccc(O)c1` [CBK093732], the “% of control remaining” value turned out to be 40.1203.

For the molecule `Cc1ccc(S(=O)(=O)Nc2ccc(Nc3cc(-c4cccc5oc6ccccc6c45)ncn3)cc2)cc1` [CBK090977], the “% of control remaining” value was found to be 143.264.

Take `FC(F)(F)c1ccc(CNc2nccnc2-c2cccs2)cc1` [CBK036834]: the “% of control remaining” value came out at 112.725.

Take `COc1ccc(C(=O)OC(C)(C)C)c(-c2cncc(NC3CCC(N)CC3)n2)c1` (stereo not drawn) [CBK037922]: the “% of control remaining” value came to 85.7603.

As to `COc1ccccc1CCCNC(=O)c1ccc2nc(C)[nH]c2c1` [CBK283258], the “% of control remaining” value came out at 89.07.

Regarding `CCN1CC2(CCN(CCCN(C)C)CC2)c2ccccc21` [CBK136988], the “% of control remaining” value worked out at 86.3859.

As to `O=C(NC1CCCCC1)N1C[C@@H]2C[C@H](C1)c1ccc(-c3cccnc3)c(=O)n1C2` [CBK289183], the “% of control remaining” value is given as 112.813.

For `CN(CC(=O)N1CCC[C@@H]2[C@H]1C/C=C/Cc1ccccc1OCC(=O)N2C)Cc1ccccn1` [CBK292078], the “% of control remaining” value is reported as 107.314.

On to `CS(=O)(=O)c1ccc(-c2nccnc2N[C@@H]2CCN(Cc3ccccc3)C2)cc1` [CBK037667], for which the “% of control remaining” value was found to be 93.0812.

For `O=C(NC(N1CCOCC1)C(Cl)(Cl)Cl)c1ccc(Cl)cc1` (stereo not drawn) [CBK261084], the “% of control remaining” value turned out to be 93.9512.

Turning to `O=S(=O)(Nc1ccc(-c2csnn2)cc1)c1ccc(F)cc1` [CBK050482], the “% of control remaining” value is recorded as 76.1635.

On to `O=C(O)CC1OC(=O)c2cc3c(cc21)C(=O)OC3CC(=O)O` (stereo not drawn) [CBK262928], for which the “% of control remaining” value was 99.5896.

`Cn1nccc1C(=O)N1CCCC(c2cc3cccnc3[nH]2)C1` (stereo not drawn) [CBK284929]: the “% of control remaining” value turned out to be 103.23.

For the molecule `CCC(C)C(NC(=O)C1CCN(S(=O)(=O)c2ccc(OC)c(OC)c2)CC1)C(=O)O` (stereo not drawn) [CBK297140], the “% of control remaining” value was determined as 99.1626.

Turning to `Cc1ccc(C(=O)Cn2c3ccccc3n3ncnc23)cc1` [CBK263081], the “% of control remaining” value worked out at 96.3099.

As to `NC(=O)C1CCN(C2=NC(=O)/C(=C/c3cn(-c4ccccc4)nc3-c3ccc(F)cc3)S2)CC1` [CBK265175], the “% of control remaining” value is on record as 71.3335.

Take `CC1(C)Cc2c(ccc3ccccc23)C(NCC(=O)O)=N1` [CBK262559]: the “% of control remaining” value was found to be 95.8654.

For `Cc1cccc2c3c([nH]c12)CCN(C(=O)C(C)N1CCOCC1)C3` (stereo not drawn) [CBK281600], the “% of control remaining” value is 103.358.

`CC(C)NC(=O)N1Cc2nc[nH]c2C[C@H]1c1nc(-c2ccccc2)no1` [CBK288996]: the “% of control remaining” value is 101.231.

`c1ccc(-c2nnc(COc3ccc(-c4cnc5ccccc5n4)cc3)o2)cc1` [CBK269707]: the “% of control remaining” value stood at 84.3463.

Take `COc1cccc(CN2CCCC(NC(=O)c3csc(C(C)=O)c3)C2)c1` (stereo not drawn) [CBK307297]: the “% of control remaining” value is 89.2665.

For the molecule `COc1ccc2c(c1)c(C)c(C(=O)N1CCCCC1CN(C)C)n2C` (stereo not drawn) [CBK282190], the “% of control remaining” value came out at 94.8366.

For the molecule `Cn1cncc1C(=O)N1Cc2ccccc2C1` [CBK200329], the “% of control remaining” value stood at 96.9004.

Consider `CN1CCN(C(=O)c2cc(Br)cnc2NCc2cccnc2)CC1` [CBK076347], for which the “% of control remaining” value amounted to 68.1476.

For the molecule `COC(=O)C1=C(C)N(CCc2ccccc2)C(=O)C1(NC(=O)c1ccccc1)C(F)(F)F` (stereo not drawn) [CBK267477], the “% of control remaining” value was 92.8481.

Regarding `Cc1cc(C)n(CC(C)NC(=O)C(c2ccccc2)N2CCCC2)n1` (stereo not drawn) [CBK281645], the “% of control remaining” value turned out to be 109.249.

For the molecule `OCCNc1nc2cc(Cl)ccc2[nH]1` [CBK262295], the “% of control remaining” value was 109.432.

For `COc1ccc(C(C)C)cc1-c1cnc2[nH]c(=O)n([C@H](C)c3ccccc3)c2n1` [CBK064181], the “% of control remaining” value came to 65.3626.

For `c1cncc(-c2csc(Nc3nc4cc5c(cc4s3)OCO5)n2)c1` [CBK287490], the “% of control remaining” value is listed as 82.8948.

With `OCCOc1cccnc1OCCN1CCCC1` [CBK039174], the “% of control remaining” value is given as 43.8296.

Take `O=S1(=O)N=c2cc3c(c4cccc1c24)=Nc1ccccc1N3` [CBK020253]: the “% of control remaining” value stood at 84.3094.

With `Cc1cc2ccccc2n1CCCNC(=O)c1ccc(=O)n(C)c1` [CBK282982], the “% of control remaining” value is 97.6689.

In the case of `Cc1ccc(NC(=O)C2CN(S(=O)(=O)c3ccccc3)CCN2S(=O)(=O)c2ccccc2)c(C)c1` (stereo not drawn) [CBK262693], the “% of control remaining” value worked out at 105.281.

With `O=C(NC1CCCCC1)NS(=O)(=O)c1ccc(CCNC(=O)c2cnc3ccccc3n2)cc1` [CBK013051], the “% of control remaining” value is recorded as 60.8742.

`CN(C)CCN(Cc1ccccc1)Cc1ccc([N+](=O)[O-])cc1` [CBK261929]: the “% of control remaining” value amounted to 98.6854.

Regarding `Cc1ccc(N(Cc2cc3ccccc3nc2O)C(=O)c2cccnc2)cc1` [CBK265442], the “% of control remaining” value came to 91.7827.

Consider `Cc1cn(CC(=O)N2CCN(C(=O)c3ccco3)CC2)c(=O)[nH]c1=O` [CBK144472], for which the “% of control remaining” value was 108.729.

Turning to `CCOc1ccc2c(c1)CN(CC(=O)Nc1cc(C)no1)CC2` [CBK305993], the “% of control remaining” value was determined as 64.0411.

Consider `COc1ccc([N+](=O)[O-])cc1COc1ccc2ccc(=O)oc2c1` [CBK264597], for which the “% of control remaining” value was found to be 111.199.

Regarding `O=C1c2cccc3cccc(c23)C(=O)N1CCN1CCN(CC(O)COc2ccc3c(c2)OCO3)CC1` (stereo not drawn) [CBK074849C], the “% of control remaining” value was 89.9344.

Turning to `COc1ccc(N(CC(=O)O)S(=O)(=O)c2ccccc2)c(OC)c1` [CBK262415], the “% of control remaining” value was 97.5158.

For the molecule `Cc1nc2c(ccc3nc(NC(=O)c4ccccc4)sc32)s1` [CBK287560], the “% of control remaining” value was 93.9115.

Turning to `O=C(CCN1C(=O)c2cccc([N+](=O)[O-])c2C1=O)Nc1ccccc1Cl` [CBK263121], the “% of control remaining” value amounted to 98.9734.

For `Cc1ccn(CCC(=O)NC(Cc2ccsc2)c2nccs2)n1` (stereo not drawn) [CBK285137], the “% of control remaining” value is recorded as 97.0951.

For `Cc1ccc(S(=O)(=O)Cc2cccc(C(=O)N3CCN(Cc4ccccc4)CC3)c2)cc1` [CBK269596], the “% of control remaining” value was 120.097.

For the molecule `O=C(CSc1nnc(-c2ccncc2)s1)NNC(=O)c1cccs1` [CBK269600], the “% of control remaining” value came to 94.1751.

`CC(=O)NCCNC(=O)c1cc(-c2cccc(S(C)(=O)=O)c2)cnc1NCC1CC1` [CBK076351]: the “% of control remaining” value turned out to be 108.995.

For the molecule `COc1ccc(C2Nc3ccccc3C(=O)N2Cc2ccccc2)cc1COc1ccc([N+](=O)[O-])cc1` (stereo not drawn) [CBK033690], the “% of control remaining” value amounted to 94.4284.

`Cn1cc([C@H]2C[C@@H](O)[C@@H](CO)O2)c(=O)[nH]c1=O` [CBK201171]: the “% of control remaining” value was 120.594.

For `C=CCn1c2ccccc2c2nnc(SCc3ccc([N+](=O)[O-])cc3)nc21` [CBK265630], the “% of control remaining” value was 97.0097.

Regarding `C=C(C)Cn1c(SCC(C)C)nnc1-c1ccccc1Cl` [CBK200078], the “% of control remaining” value was determined as 84.5954.

For `CCC1CCCCN1C(=O)C1CCCCC1` (stereo not drawn) [CBK084528], the “% of control remaining” value came out at 95.826.

Take `O=C(CNC1CCN(Cc2ccccc2)CC1)Nc1ccc(Cl)cc1C(=O)c1ccccc1Cl` [CBK074770]: the “% of control remaining” value amounted to 58.3809.

`COCCNCc1cccc(OCc2ccccc2)c1` [CBK269864C]: the “% of control remaining” value is listed as 72.5126.

Regarding `O=C(Cn1cccnc1=O)NCc1cccnc1OCC(F)(F)F` [CBK305949], the “% of control remaining” value was found to be 87.0779.

On to `O=C(Nc1ccc(F)cc1)c1c(NS(=O)(=O)c2ccc(Oc3ccccc3)cc2)sc2c1CCCC2` [CBK028653], for which the “% of control remaining” value stood at 81.8138.

Consider `CN(C)CCn1c([C@@H]2CCCO2)cc2cccnc21` [CBK282288], for which the “% of control remaining” value was found to be 91.4574.

On to `CCOc1cc(/C=C2/SC(=S)N(c3cccc(C(F)(F)F)c3)C2=O)ccc1OCC(=O)O` [CBK264965], for which the “% of control remaining” value is given as 108.403.

With `CCC1(C)CC(C(CCN)c2ccc(C)cc2)CCO1` (stereo not drawn) [CBK027350], the “% of control remaining” value came out at 74.1959.

Turning to `Cc1nc(-c2ccccc2)nc2c1c(N)nn2CC(=O)O` [CBK287109], the “% of control remaining” value turned out to be 95.6795.

The values above are taken from article PMC12040169 (PLOS Biology, 2025).
